Measurements taken from the supplement of paper PMC10441789.
The list shows a part of the results. Antibody binding of pooled human sera (four to six donors per pool; dilution not stated) to peptides of the Trypanosoma cruzi antigen TSSA on microarrays. Quantile-normalised fluorescence in arbitrary units, mean of duplicate arrays; higher = more binding. No active / inactive call. The uninfected pools are read here as the healthy donors of the same country. The strongest signals lie near the top of the scale (about 60,000).

How the values were obtained:
Experiment in all cases: antibody binding signal (normalised fluorescence) (arbitrary fluorescence units); higher = stronger serum antibody binding to peptide
[1] = tested on: pooled sera of chronic Chagas disease patients, Argentina
Method: (§1)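 Microarray of 15-residue peptides over residues 30-55 of Trypanosoma cruzi TSSAII, each with 1 to 10 substitutions at naturally variable positions, probed with one serum pool per country.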

[2] = tested on: pooled sera of chronic Chagas disease patients, Bolivia
Method: as §1

[3] = tested on: pooled sera of chronic Chagas disease patients, Brazil
Method: as §1

[4] = tested on: pooled sera of chronic Chagas disease patients, Colombia
Method: as §1

[5] = tested on: pooled sera of chronic Chagas disease patients, Mexico
Method: as §1

[6] = tested on: pooled sera of chronic Chagas disease patients, USA
Method: as §1

[7] = tested on: pooled sera of uninfected people, Argentina
Method: as §1

[8] = tested on: pooled sera of uninfected people, Bolivia
Method: as §1

[9] = tested on: pooled sera of uninfected people, Brazil
Method: as §1

[10] = tested on: pooled sera of uninfected people, Mexico
Method: as §1

[11] = tested on: pooled sera of uninfected people, USA
Method: as §1

| Sequence | antibody binding signal [1] | antibody binding signal [2] | antibody binding signal [3] | antibody binding signal [4] | antibody binding signal [5] | antibody binding signal [6] | antibody binding signal [7] | antibody binding signal [8] | antibody binding signal [9] | antibody binding signal [10] | antibody binding signal [11] |
| --- | --- | --- | --- | --- | --- | --- | --- | --- | --- | --- | --- |
| GKDKKAAAGEAPSQS | 3500 | 5150 | 1930 | 6620 | 4600 | 8900 | 151 | 91.8 | 96.1 | 81.7 | 99.6 |
| DKKAATGETPSPSGA | 1050 | 693 | 12500 | 194 | 334 | 10500 | 712 | 166 | 450 | 174 | 1090 |
| DKKAATGETPSQPGA | 4540 | 1790 | 36500 | 230 | 312 | 10800 | 542 | 554 | 409 | 304 | 282 |
| NKTATGEAPSQSGAS | 6940 | 35400 | 26100 | 140 | 405 | 23100 | 462 | 701 | 364 | 235 | 915 |
| PSGTENKPAAGGTPS | 54000 | 39200 | 47600 | 3610 | 4990 | 14200 | 2170 | 2870 | 1420 | 822 | 545 |
| TEKKTATGEAPSPPG | 12600 | 26000 | 14500 | 427 | 412 | 19800 | 263 | 126 | 509 | 157 | 147 |
| ENKTATGGAPSQSGA | 557 | 2630 | 1120 | 516 | 546 | 979 | 335 | 182 | 440 | 332 | 196 |
| TPPSGTDNKTAAGET | 22700 | 30400 | 41700 | 418 | 3910 | 6730 | 465 | 490 | 593 | 135 | 169 |
| SGTEKKPATGGTPSP | 4400 | 789 | 3980 | 3190 | 2510 | 1900 | 328 | 1080 | 1270 | 225 | 841 |
| TISTPPSGKEKKTAA | 15200 | 233 | 350 | 613 | 21400 | 678 | 699 | 405 | 127 | 118 | 247 |
| NKTATGETPSPPGAS | 361 | 1230 | 5250 | 292 | 294 | 5870 | 613 | 1220 | 366 | 197 | 2020 |
| NKPAAGGAPSQPGAS | 267 | 667 | 20000 | 1340 | 306 | 612 | 747 | 1210 | 345 | 235 | 1390 |
| KDNKAAAGGTPSQPG | 212 | 179 | 312 | 1280 | 171 | 913 | 308 | 1700 | 501 | 183 | 98.9 |
